Publication PMC12216098

Biological target: Human SPT6 (wildtype) as used for ITC (human) (UniProt Q7KZ85)
Experiment: ITC; U1A in the syringe (150-550 μM), SPT6 construct in the cell (10-35 μM); 25 °C; SEC300 Buffer (20 mM HEPES-NaOH pH 7.5, 300 mM NaCl); one set of binding sites model

Human U1A (a stretch of the chain, no sequence given) (natural protein; other documents disagree on this pair)
Kd: 1.96 µM
